# Data taken from PubChem BioAssay AID485344 (National Center for Advancing Translational Sciences (NCATS), 2010).
# Where “and” joins values, the source holds several entries; their conditions need not be identical. Identical values can stand only once. About 6,900 (2%) of roughly 340,000 compounds were called active. No stated cut-off is given here; in the data, active means inhibition above about 30%; inactive means below that, where a call was filed. The list shows a part of the results, in another mix than the full data. The source gives no active or inactive call for entries shown without one.
# Target: D(2) dopamine receptor (Homo sapiens) (UniProt P14416)
# Test: HTS Assay for Allosteric Antagonists of the Human D2 Dopamine Receptor: Primary Screen for Antagonists; further: 0% is about no effect
# Settings: HEK293 TREx D2 cells, calcium flux, dopamine EC80; at 10 µM; stronger effect = higher value
# Summary of the method: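 Antagonism is scored as inhibition of an EC80 dopamine-evoked calcium signal in a force-coupled, tetracycline-inducible HEK293 T-REx D2 line, with compound present 180 s before agonist.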
# UniProt P14416, sequence (P14416 whole entry, looked up): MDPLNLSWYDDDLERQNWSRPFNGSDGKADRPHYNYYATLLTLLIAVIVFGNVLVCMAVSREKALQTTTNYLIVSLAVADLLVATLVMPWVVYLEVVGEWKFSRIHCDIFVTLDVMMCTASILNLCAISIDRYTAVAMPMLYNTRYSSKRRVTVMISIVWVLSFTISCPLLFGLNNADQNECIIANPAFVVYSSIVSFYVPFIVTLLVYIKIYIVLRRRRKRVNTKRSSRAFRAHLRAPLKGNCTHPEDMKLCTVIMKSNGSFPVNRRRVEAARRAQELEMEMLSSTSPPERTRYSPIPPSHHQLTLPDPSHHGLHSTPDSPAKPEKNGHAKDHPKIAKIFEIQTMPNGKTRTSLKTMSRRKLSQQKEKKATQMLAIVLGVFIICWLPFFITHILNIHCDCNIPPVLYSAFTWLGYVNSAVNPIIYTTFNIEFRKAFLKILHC
row,Compound,inhibition
1,CCN1CCN(c2cc(C)c3cc(NC(=O)c4cc(OC)cc(OC)c4)ccc3n2)CC1,-2.74%
2,Cc1ccc(OCCn2c(COc3ccc(Cl)cc3)nc3ccccc32)cc1,3.45%
3,COc1ccc(-c2nc3ccc(C(=O)NCc4ccc(C)cc4)cc3nc2-c2ccc(OC)cc2)cc1,9.08%
4,Cc1cc(=O)[nH]c(SCC(=O)N2CCN(c3ccccc3)CC2)n1,7.92%
5,COc1ccc(Cl)cc1-n1c(CCC(=O)O)ccc1-c1ccc(C)cc1,21.3%
6,O=C(CC1N=C2c3ccccc3N=C(SCc3ccccc3Cl)N2C1=O)NC1CCCCC1 (centres undefined),20.3%
7,CC1CCN(S(=O)(=O)c2ccc3c(c2)N(CC(=O)Nc2ccc(F)c(Cl)c2)C(=O)CO3)CC1,4.58%
8,Cc1cccc(NC(=O)Cn2c(=O)n(Cc3ccc4c(c3)OCO4)c(=O)c3ccccc32)c1,7.74%
9,CCS(=O)(=O)c1c(Nc2ccc(F)c(Cl)c2)sc(C(=O)c2ccccc2)c1N,-3.27%
10,CCOc1ccc(-c2ccc(NS(=O)(=O)c3cc(C)ccc3OC)cc2)nn1,17.9%
11,Cc1ccc(N2CCN(C(=O)c3nn(C)c4c3CS(=O)(=O)c3ccccc3-4)CC2C)cc1 (centres undefined),-23.3%
12,O=c1c2oc3ccccc3c2n(Cc2ccccc2F)c(=O)n1Cc1ccco1,7.62%
13,Cc1c(CNCCCc2ccccc2)c(C(=O)O)c(C)n1Cc1ccc(Cl)cc1,5.3%
14,Cc1ccc(Cn2cc(CCC(=O)NC3CCCCC3)c3ccccc32)cc1,10%
15,CCCCCSc1nnc2c(n1)OC(c1ccc(C)s1)N(C(C)=O)c1ccccc1-2 (centres undefined),3.16%
16,COc1ccc(S(=O)(=O)NC2(C(F)(F)F)NC(=O)N(CCc3ccccc3)C2=O)cc1 (centres undefined),25.7%
17,Oc1ccccc1-c1nc(/C=C/c2ccc(F)cc2)no1,8.08%
18,Cc1c(Cl)cccc1N1CC(c2nc3ccccc3n2Cc2ccccc2F)CC1=O (centres undefined),-11.2%
19,Cc1cccc(N2CCN(C(=O)Nc3ccc(F)cc3)CC2C)c1 (centres undefined),-10.7%
20,Cc1ccccc1NC(=O)Nc1nnc(N(C)Cc2ccccc2)s1,-5.4%
21,Cc1cc(C)cc(C(=O)Nc2ccc(-c3cn4cccnc4n3)cc2)c1,-3.04%
22,COC(=O)c1ccccc1NC(=O)c1nc(SCc2ccccc2C)ncc1Cl,1.2%
23,COc1ccc(-n2cc3c(c2-c2cccc(Br)c2)c(=O)n(C)c(=O)n3C)cc1OC,-19.5%
24,COc1ccc(-c2cc(C(F)(F)F)nc(SCC(=O)NCc3ccc(F)cc3)n2)cc1,-6.21%

row,Compound,inhibition
1,O=C(OCC(=O)N1CCN(c2ccccc2)CC1)c1cccc([N+](=O)[O-])c1,active: 30.3%
2,COc1cccc(NC(=O)Cn2c(=O)n(Cc3ccccc3)c(=O)c3c4c(sc32)CN(C(C)=O)CC4)c1,-2.83%
3,CCCCc1ccc(NC(=O)Cn2cnc3c2c(=O)n(C)c(=O)n3C)cc1,1.53%
4,CCN(C(=O)c1sc2nc3n(c(=O)c2c1C)CCCCC3)c1ccccc1F,13.3%
5,O=C(c1cc([N+](=O)[O-])ccc1Cl)N1CCN(Cc2ccc3c(c2)OCO3)CC1,active: 44.2%
6,Cc1ccc(NC(=O)Nc2nnc(N3CCCCC3)s2)c(C)c1,-0.16%
7,CCc1ccc(CNC(=O)c2cc3c(=O)oc4ccc(C)cc4c3s2)cc1,-10.5%
8,COc1ccc(NC(=O)c2ccc3snnc3c2)cc1OC,-1.85%
9,CN(C)C(=O)c1ccc(S(=O)(=O)NCc2ccccc2Cl)s1,15.5%
10,COc1cc(OC)cc(-n2c(=O)[nH]c3cc(C(=O)NCCc4ccc(C)cc4)ccc3c2=O)c1,12.3%
11,O=C(CCSCc1ccccc1F)N1CCN(c2ccc(F)cc2)CC1,-10.7%
12,Cn1cc(C(=O)NCc2ccc(F)cc2)c(=O)c2cc(S(=O)(=O)N3CCCCC3)ccc21,22.9%
13,CCOc1ccccc1NC(=O)Cn1c(=O)n(Cc2ccc(C(=O)NCCCOC)cc2)c(=O)c2ccccc21,-9.45%
14,O=C(O)c1cccc(NC(=O)c2cccc(S(=O)(=O)Nc3cccc(C(=O)O)c3)c2)c1,-2.26%
15,CCn1c(=O)c2cc(C(=O)N(C)c3cc(C)ccc3C)sc2c2ccccc21,-8.09%
16,CC(C)c1ccc(Nc2nc3ccc(C(=O)c4ccccc4)cc3n3cnnc23)cc1,-1.93%
17,CCOc1ccc(Sc2cc(C(=O)NCCc3ccc(OC)c(OC)c3)c3ccccc3n2)cc1,9.65%
18,COc1ccc(-c2nn(-c3ccccc3)cc2C(=O)Nc2ccccc2OC)cc1,13.9%
19,CCn1cc(C(=O)N2CCN(c3ccccc3OC)CC2)c(=O)c2cc(S(=O)(=O)N3CCCCC3)ccc21,13.6%
20,CC(C)CN(c1ccccc1)S(=O)(=O)c1nnc(NC(=O)c2ccco2)s1,3.66% and active: 67.8%
21,CC(=O)c1c(C)oc2ccc(N(C(=O)Oc3ccccc3)S(=O)(=O)c3ccc(Br)cc3)cc12,5.27%
22,Cc1cccc(C(=O)Nc2ccccc2-c2nc(-c3ccccc3)no2)c1,-4.3%
23,CC1=C(c2ccc(C)c(C)c2)S(=O)(=O)N=C1N1CCN(c2cccc(C(F)(F)F)c2)CC1,-7.14%
24,O=C(/C=C/c1cccc(F)c1)NC1CCN(Cc2ccccc2)CC1,active: 56.4%

row,Compound,inhibition
1,Cc1ccc(NC(=O)Cn2c(=O)n(-c3ccc(CC(=O)NCC4CCCO4)cc3)c(=O)c3ccccc32)cc1 (centres undefined),5.4%
2,CCOc1ccc(-n2c(=O)c3c4c(sc3n(Cc3cccc(Cl)c3)c2=O)CCCC4)cc1,7.52%
3,COCCCNC(=O)Cn1c(=O)n(CCCC(=O)NCc2ccc(C)cc2)c(=O)c2ccccc21,11.4%
4,CCCC(=O)N(c1ccc2oc(-c3ccccc3)c(C(=O)OCC)c2c1)S(=O)(=O)c1ccc(C)cc1,2.25%
5,Cc1ccc(/C=C(\C#N)c2nc(-c3cc4c(ccc5ccccc54)oc3=O)cs2)cc1,3.76%
6,O=C(NCC(c1ccc2c(c1)OCO2)N1CCOCC1)c1ccc(F)cc1 (centres undefined),-19.6%
7,CCCCN1CC(c2nc3ccccc3n2CCCCOc2c(C)cccc2C)CC1=O (centres undefined),7.07%
8,Cc1cc(C)c2c(c1)[C@@H]1C=CC[C@@H]1[C@H](c1ccc(S(=O)(=O)N3CCOCC3)cc1)N2,active: 35%
9,CCn1c(CNC(=O)c2ccc(OC)cc2)nnc1SCC(=O)Nc1cccc(C)c1C,14.5%
10,CCN(CC)C(CNS(=O)(=O)c1ccc(Cl)cc1)c1ccccc1 (centres undefined),active: 39.3%
11,Cc1ccc(NC(=O)CSc2nc3ccc(NC(=O)c4cccs4)cc3s2)c(C)c1,21.7%
12,CC1CCC(C(C)C)C(OC(=O)C[n+]2cc(-c3ccc(Cl)cc3)n3c2CCCCC3)C1 (centres undefined),active: 33.1%
13,CCOC(=O)c1c(C)oc2nc(C)nc(NCC3CCN(Cc4cccc(C)c4)CC3)c12,-8.29%
14,Cc1cc2nn(-c3ccc(F)cc3)nc2cc1NC(=O)c1ccc(OC(C)C)cc1,-14.3%
15,Cc1ccc2nc(Cl)c3cc(C(=O)N(C)C4CCCCC4)sc3c2c1,-14.7%
16,CC1CN(c2ncnc3c2cnn3-c2ccc(Cl)cc2)CC(C)O1 (centres undefined),active: 31.2%
17,CCOC(=O)c1sc(C)c2c(=O)n(Cc3ccc(Cl)cc3)c(C)nc12,active: 37.7%
18,COc1ccc(C2c3cccn3CCN2S(=O)(=O)c2ccccc2[N+](=O)[O-])cc1OC (centres undefined),-0.851%
19,O=C(NCC(c1ccc2c(c1)OCO2)N1CCOCC1)c1ccccc1F (centres undefined),15.5%
20,CCc1ccc(CNC(=O)CCc2c(C)nn(-c3ccc(N4CCCCC4)nn3)c2C)cc1,0.205%
21,Cc1cccn2cc(-c3cccc(NS(=O)(=O)c4ccc(Cl)c(Cl)c4)c3)nc12,1.08%
22,CCc1ccc2occ(CC(=O)Nc3c(C(=O)Nc4ccc(OC)cc4)oc4ccccc34)c2c1,13.5%
23,CC(CNC(=O)Cn1ccc2cc(S(=O)(=O)N3CCCCC3)ccc21)c1ccccc1 (centres undefined),1.7%
24,CC(COc1ccccc1)NC(C)C(O)c1ccc(O)cc1 (centres undefined),active: 90.3%

row,Compound,inhibition
1,COc1ccc(-c2cc(C(F)F)n3ncc(C(=O)Nc4cc(OC)ccc4OC)c3n2)cc1,-2.78%
2,CCOc1ccc(NC(=O)Cc2coc3ccc(C)cc23)cc1,-3.02%
3,COc1ccccc1NC(=O)CSc1ccc(-c2sc(C)nc2C)nn1,13.8%
4,COc1cccc(CNCCSc2nnnn2C)c1OCc1ccc(Cl)cc1Cl,5.58%
5,COc1ccccc1CNC(=O)Cn1c(=O)oc2cc(S(=O)(=O)N3CCC(C)CC3)ccc21,-12.6%
6,CCC(Nc1ccc(-c2nc(-c3ccco3)no2)cc1[N+](=O)[O-])c1ccccc1 (centres undefined),5.21%
7,CN(C)C(CNC(=O)c1ccc(-c2ccccc2)cc1)c1ccccc1 (centres undefined),active: 30.7%
8,Cc1cccc(-c2nc(CCNC(=O)Cc3ccc(F)cc3)cs2)c1,-24.2%
9,COc1ccc(-c2c(C#N)c(SCC(=O)Nc3ccccc3C)nc(C)c2C(=O)Nc2ccccc2)cc1OC,-4.74%
10,COCCCNC(=O)CSc1nc(-c2cccc(F)c2)[nH]c1-c1ccccc1,-6.12%
11,N#C/C(=C\c1ccc(Cl)cc1)C(=O)NCC1CCCO1 (centres undefined),4.52%
12,Cn1cc(S(=O)(=O)c2ccccc2)c(=O)c2cc(F)c(N3CCOCC3)cc21,-6.38%
13,COc1ccc(CCN2C(=O)N(c3ccc(F)cc3)C(=O)C2CC(=O)Nc2ccccc2)cc1 (centres undefined),5.48%
14,CCC1CCCCN1S(=O)(=O)c1ccc(NC(=O)c2cc(=O)c3ccccc3o2)cc1 (centres undefined),-6.69%
15,CCN(CCCNC(=O)c1cc2c(=O)[nH]c3ccccc3c2s1)c1ccccc1,-11.9%
16,O=S(=O)(c1ccc(-n2cnnn2)cc1)N1CCN(c2ccccc2F)CC1,0.0819%
17,O=C(Nc1nc(-c2ccc(Br)cc2)ns1)c1ccc(F)cc1,6.21%
18,CCOc1cccc(-c2c(C(=O)N/N=C/c3cccs3)nnn2-c2nonc2N)c1,active: 31.8%
19,CC(=O)c1cccc(NC(=O)Cn2c(SCC(=O)Nc3ccc(F)cc3)nc3ccccc32)c1,7.5%
20,Cn1nc(-c2ccc(Cl)cc2)c2cc(C(=O)NCCCN3CCCC3)sc21,active: 33%
21,Cc1c2cnn(CC(=O)NCc3ccccc3)c(=O)c2c(C)n1Cc1cccc(Cl)c1,-4.99%
22,CCOc1ccc(-n2c(C)nc3c(cnn3-c3ccc(C)cc3)c2=O)cc1,-7.42%
